Laboratory results: the supplement of paper PMC11417369
The list shows a part of the results.

system: PfAP2-HC AP2 domain (GST-tagged); experiment: gcPBM binding intensity (ln(normalized median fluorescence intensity)); higher = stronger DNA binding
Procedure, shortened: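 An Agilent 4 × 180k array carrying primer-extended double-stranded 36-bp intergenic genomic probes and negative controls received GST-tagged P. falciparum DNA-binding domains expressed in E. coli, about 25 μg on average, for 1 h. The binding buffer contained 1× PBS, 1% milk, 0.2 mg/ml BSA, 0.5% salmon testes DNA and 0.03% Triton X-100. Binding intensity is the top Masliner-normalised natural-log median intensity across replicate spots of either probe orientation, read after Alexa488 anti-GST antibody staining and a 488 nm scan.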

| Sequence | gcPBM binding intensity (ln) |
| --- | --- |
| TTAAATATAATTATATGTACATATTTATGTATATAT [XGTACX_site5811] | 9.71 |
| AGATTGTATTTATGTACACACATTTTTGGAATATGA [CACACA_site1340] | 9.76 |
| TTGATTAAAATTAGTACACACAAAATACATGCGGGG [CACACA_site5284] | 9.95 |
| TATATATTAAAATAATCACACACATCAATTAATGGT [CACACA_site8331] | 10.1 |
| AAAAAATTATTAATTTGTACATAAATAACCAAAAAA [XGTACX_site2488] | 9.62 |
| TGGGTCTCTAACTGGTGTACTATTTACATATTATAC [XGTACX_site8593] | 10 |
| TATGATTTTAACAACTGTACAATATAATAAATCTAA [XGTACX_site2198] | 9.46 |
| ATATATTTTTAATTACGTACTTAATAATATATACAA [XGTACX_site3285] | 9.44 |
| TAAAAGAAAAATTAGTGTACCAATATTAACATAAAA [XGTACX_site5474] | 9.74 |
| TCTCATAGGAAACACACACACACACCCACATATATA [CACACA_site1738] | 11 |
| ATATATTTTTTAAATTTAAAAATTATAAAATTTATA [TGCATGCA_negctrl_site36] | 9.11 |
| ATATATGTGCGCGTATGTACATAAAATAAATATACA [XGTACX_site2689] | 10.1 |
| TAAATAAAAAAAAAAAGTACATACATACAAACATAT [XGTACX_site4427] | 9.81 |
| TAATTCTAAATAAATGTACACACAAAAATAAATGTA [CACACA_site8509] | 9.81 |
| TATATATATATTATATGTACATAAATATTTATACTC [XGTACX_site114] | 9.64 |
| TTATAAAATTTTCTTCTATATTTTAATTATTCTCAT [TGCATGCA_negctrl_site571] | 9.54 |
| CTATTTTATATGTGCACACATATACACCCACAAATA [CACACA_site1131] | 9.98 |
| TTGATAAAATGGGAGAAATTAAAAAGGAAAAAAAAA [CACACA_negctrl_site1279] | 9.5 |
| TATACAATATATTTTGGTACACAAACAAAAAAATAT [XGTACX_site2522] | 9.79 |

| Sequence | gcPBM binding intensity (ln) |
| --- | --- |
| ATTAAAAGAACCAAGTGTACATTCTATATATAAAAA [XGTACX_site4260] | 9.68 |
| GAAAAAGACAAAAGGTGTACAATATGAAATATATAT [XGTACX_site373] | 9.91 |
| GTTCACCAAAGGTAACGTACACAAACATATATATAT [XGTACX_site1073] | 9.61 |
| ATATTATGATCTATTTTTATATTCTATTTGATAAAT [CACACA_negctrl_site1070] | 9.59 |
| AAAATAATAATTAAATAATAGTAAATGAAAAATAAA [CACACA_negctrl_site57] | 9.72 |
| AAGTTTATTATATATAAATTATTATATATATATATA [CACACA_negctrl_site189] | 9.55 |
| TATGTGTTCAGTATTGCACACACACTCCAAAATAAA [CACACA_site8018] | 10 |
| ACTTCATTTTATAAGTGTACATAATTTGTTTATATA [XGTACX_site5453] | 9.75 |
| ATAAATACTAGGCACACACACATATAGATTTATATA [CACACA_site7064] | 10.8 |
| GTTGTCCCCCTTTCTATGCACACTTTAAATTATTCA [CACACA_site52] | 10 |
| ATTCTAATAGATAGTAGTACCTATAAGTTTTCTTTT [XGTACX_site2315] | 9.54 |
| AATTTATAAGAATATTGTACGTTTAATATATTGTAA [XGTACX_site7553] | 9.52 |
| AAACGATCTCGATGTTGTACACATTTATATAGAAAC [XGTACX_site4373] | 9.79 |
| TACTAAAATATATATATGCAACATGAGATATTCAAC [XGTACX_negctrl_site283] | 9.69 |
| CATGTGTGTATAATTTGTACATATACATAATAAATA [XGTACX_site2418] | 9.98 |
| CTAAACTAAACAAACTGTACACAAATAAAACAATAA [XGTACX_site8880] | 9.76 |
| ATATCAACTGAATTGTATAGGCGATAAAAGAAAAAA [CACACA_negctrl_site1334] | 9.61 |
| TTTATACATACATTCGTGCACATACGTATAACATAT | 9.84 |
| ATATAAATATATGTATGTACACATTTTTTTTTTTTT [XGTACX_site247] | 9.68 |

| Sequence | gcPBM binding intensity (ln) |
| --- | --- |
| AGAATTATAAATTATAGTACATAAAATTTTGATGTA [XGTACX_site5726] | 9.54 |
| AACATATTGGATTTAGTGCACATATATATCATAATA | 9.66 |
| AAAAATTACCCTTGTGTACACATATATTATCTGTAT [CACACA_site4513] | 10 |
| TATAAGCTTTCAATGTGTACATATTATTTTATTATT [XGTACX_site3988] | 9.77 |
| TCTTATAAACATGTATATATTAAAAAAAAAAAAAAA [TGCATGCA_negctrl_site86] | 9.17 |
| TAATAATAATTAAATTGTACATATAATATAATATAA [XGTACX_site8554] | 9.55 |
| ATATTATCATATTCGAGTACACGAAGTATTATTGCA [XGTACX_site6765] | 9.57 |
| AATAAAGTAATAACTACACACATTTATAAAAAAGTA [CACACA_site3753] | 10 |
| TAAAAATTACTATATGAACACACATGATTAGATATA [CACACA_site9012] | 9.7 |
| AGGTGATTAATATATACACACATACATATATATATA [CACACA_site8913] | 10 |
| TATATAAATTAACCAGTGCATTATTTGGAAATTATT | 9.58 |
| AACCATAAAAAGTGTACACATATAAAAAATATGGAA [CACACA_site4199] | 9.94 |
| ATATATCATCATGTATGTACACACATACATATATTA [XGTACX_site2814] | 10.2 |
| TATGCTTTTACAATGTGTACTTATATTTTTCACAGG [XGTACX_site6201] | 9.73 |
| TAATTTTCAATAATTTGTACATAATTTTTATAAATT [XGTACX_site8133] | 9.42 |
| ACAAGAGAAAAAAATACACACAAGATAAAAATGTAT [CACACA_site607] | 9.95 |
| TAAAAAAATTTTACAAGTACAAAAAAATGTAATAAA [XGTACX_site4829] | 9.57 |
| ATATATATAGATCGAAGTACAGATAGAATGAAAATA [XGTACX_site2695] | 9.8 |
| ATATATATATAATGTAGTACTATTTAATAATAAGCC [XGTACX_site1263] | 10.1 |
